Consider one molecule from patent US20070224633A1 (Pieris, published 2007).

The target of test [1] is T1, human CD154 on CHO-K1 cells transfected with CD154-pcDNA3.1Zeo(+) (human, UniProt P29965 1-261).
T1 construct: also called CHO-CD154; CHO cell line expressing human CD154
T1 sequence: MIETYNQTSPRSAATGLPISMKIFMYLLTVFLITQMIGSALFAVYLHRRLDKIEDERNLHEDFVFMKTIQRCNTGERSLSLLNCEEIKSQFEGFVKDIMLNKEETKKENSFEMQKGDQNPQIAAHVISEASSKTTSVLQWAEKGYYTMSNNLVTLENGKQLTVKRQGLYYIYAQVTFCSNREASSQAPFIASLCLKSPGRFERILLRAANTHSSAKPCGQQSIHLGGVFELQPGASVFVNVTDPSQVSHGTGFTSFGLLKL
As to the kind of experiment: flow cytometry on CHO cells expressing human CD154, fluorescein-labelled protein. On the procedure:
The mutein F92.8 M1.2 E15 was tested for specific binding to a CHO cell line expressing human CD25 in a flow cytometry assay. For this purpose, the CD25-pcDNA3.1 Zeo(+)- or CD154-pcDNA3.1Zeo(+)-transfected CHO cells described in Examples 15 and 22, respectively were detached from culture flasks with 0.2% w/v EDTA. Approximately 200,000 cells were resuspended in 30 μl PBS/2% v/v FCS and incubated with 2.5 μg of monomeric F92.8 M1.2 E15 fraction obtained as described in Example 20 and labeled at a twofold molar ratio with fluorescein (Fluorescein-5(6)-carboxamido caproic acid N-succinimidyl ester; Fluka) based on the protocol described in Schlehuber and Skerra (supra). As a negative control, 2.5 μg of the recombinant wild type TLPC encoded by pTLPC8 and labeled with fluorescein at a twofold molar ratio was employed. CD25 expression was confirmed with FITC-labeled anti-CD25 mAb (Acris, DM519F), using FITC-labeled IgG1 (Acris, SM10F) as isotype control. After 30 min incubation on ice, cells were washed twice with PBS/2% v/v FCS prior to analysis by flow cytometry using a FACSCalibur (Becton Dickinson).
Background: Flow cytometry measures light scatter and fluorescence of single cells or particles in a stream.

Test [2] has as its target T2, human CD25 on CHO-K1 cells transfected with CD25-pcDNA3.1Zeo(+) (human, UniProt P01589 22-272).
T2 construct: also called CHO-CD25; CHO cell line expressing human CD25
T2 sequence: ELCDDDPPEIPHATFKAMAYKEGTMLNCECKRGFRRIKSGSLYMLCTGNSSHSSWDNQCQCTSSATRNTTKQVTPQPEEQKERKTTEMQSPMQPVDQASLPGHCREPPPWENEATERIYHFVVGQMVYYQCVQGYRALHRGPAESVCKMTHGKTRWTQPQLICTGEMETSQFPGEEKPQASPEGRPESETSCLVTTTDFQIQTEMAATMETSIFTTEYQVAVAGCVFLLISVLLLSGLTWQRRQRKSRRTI
As to the kind of experiment: flow cytometry on CHO cells expressing human CD25, fluorescein-labelled protein. On the procedure: The mutein S67.7 C6 was tested for specific binding to a CHO cell line expressing human CD25 in a flow cytometry assay. For this purpose, the CD25-pcDNA3.1Zeo(+)- or pcDNA3.1Zeo(+)-transfected CHO cells described in Example 15 were detached from culture flasks with 0.2% w/v EDTA. Approximately 200,000 cells were resuspended in 30 μl PBS/2% v/v FCS and incubated with 10 μg S67.7 C6 obtained as described in Example 13 and labeled with fluorescein (Fluorescein-5(6)-carboxamido caproic acid N-succinimidyl ester; Fluka) at an equimolar ratio based on the protocol described in Schlehuber and Skerra (Biol. Chem. (2001) 382, 1335-1342). As a negative control, 10 μg of the recombinant wild type TLPC encoded by pTLPC8 and labeled with fluorescein at an equimolar ratio was employed. CD25 expression was confirmed with FITC-labeled anti-CD25 mAb (Acris, DM519F), using FITC-labeled IgG1 (Acris, SM10F) as isotype control. After 30 min incubation on ice, cells were washed twice with PBS/2% v/v FCS prior to analysis by flow cytometry using a FACSCalibur (Becton Dickinson).

B1: recombinant wild type TLPC encoded by pTLPC8 (other)
chain: DGGEEIQDVSGTWYLKAMTVDREFPEMNLESVTPMTLTTLEGGNLEAKVTMLISGRCQEVKAVLEKTDEPGKYTADGGKHVAYIIRSHVKDHYIFYSEGQLHGKPVRGVKLVGRDPKNNLEALEDFEKAAGARGLSTESILIPRQSETCSPGDASMTGGQQMGSAWSHPQFEK
modifications: labeled with fluorescein (equimolar ratio in Example 16, twofold molar ratio in Example 23); sites not stated
notes: In the modified lipocalin the first four and last two residues of the mature protein are deleted; Positions 5-7 are changed to GGD, with Cys101Ser and Glu104Gln
Regarding B1, the binding result is given as “no binding (tested: 2.5 µg in 30 µl)” in test [1] and “no binding (tested: 10 µg in 30 µl)” in test [2].
